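How tested: cells in 96-well plates exposed to compound for 48 hours at five concentrations. GI50: concentration for 50% inhibition of growth.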 Some entries of the source have several records that differ or are many. This list holds those alone. There may be further records. For some assays here: The tests behind the records often covered other concentration ranges, which the source does not state; some values may only mark the edge of a range.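 TGI marks complete inhibition of growth.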 For some assays here: The records of an entry are repeats in other runs, samples, wells, individuals or studies. What stands in brackets tells the records apart. The letters are not those of the source and start again with each entry.
Assays:
Experiment in all cases: NCI tumour cell line growth inhibition, 48 h
ACHN renal = system: ACHN renal
OVCAR-4 ovarian = system: OVCAR-4 ovarian
NCI-H23 lung = system: NCI-H23 lung
UACC-62 melanoma = system: UACC-62 melanoma
UO-31 renal = system: UO-31 renal
COLO 205 colon = system: COLO 205 colon
SR leukemia = system: SR leukemia
SN12C renal = system: SN12C renal
786-0 renal = system: 786-0 renal
SF-268 CNS = system: SF-268 CNS
SW-620 colon = system: SW-620 colon
KM12 colon = system: KM12 colon
NCI/ADR-RES ovarian = system: NCI/ADR-RES ovarian
M14 melanoma = system: M14 melanoma
HCT-116 colon = system: HCT-116 colon
RPMI-8226 leukemia = system: RPMI-8226 leukemia
K-562 leukemia = system: K-562 leukemia
LOX IMVI melanoma = system: LOX IMVI melanoma
HT29 colon = system: HT29 colon
MCF7 breast = system: MCF7 breast
TK-10 renal = system: TK-10 renal
OVCAR-5 ovarian = system: OVCAR-5 ovarian
SK-MEL-5 melanoma = system: SK-MEL-5 melanoma
OVCAR-8 ovarian = system: OVCAR-8 ovarian
PC-3 prostate = system: PC-3 prostate
IGROV1 ovarian = system: IGROV1 ovarian
SNB-78 CNS = system: SNB-78 CNS
HOP-62 NSCLC = system: HOP-62 NSCLC
KM20L2 colon = system: KM20L2 colon
A549 NSCLC = system: A549 NSCLC
SF-539 CNS = system: SF-539 CNS

## CC[C@@]1(O)C(=O)OCc2c1cc1n(c2=O)Cc2cc3cc(OC)ccc3nc2-1
ACHN renal
  TGI: 109 nM, 1.52 µM, 1.21 µM
OVCAR-4 ovarian
  TGI: 623 nM and > 100 µM
NCI-H23 lung
  TGI: 81.5 nM, 195 nM, 24 µM
UACC-62 melanoma
  TGI: 12.9 nM and 264 nM
UO-31 renal
  TGI: 351 nM and > 100 µM
COLO 205 colon
  TGI: 3.27 µM and 73.7 µM
SR leukemia
  TGI: 6.82 µM and 14.5 nM
SN12C renal
  TGI: 1.9 µM and 25.5 nM
786-0 renal
  TGI: 70.3 nM, 470 nM, 28.1 µM
SF-268 CNS
  TGI: 727 nM and > 100 µM

## Cc1cc2c(c3oc(C(O)(CO)C4CO4)cc(=O)c13)C(=O)c1c(O)cccc1C2=O (configuration not stated)
SW-620 colon
  TGI: 3.09 nM and 0.24 nM
KM12 colon
  TGI: 2.57 nM and 0.256 nM
NCI/ADR-RES ovarian
  TGI: 7.74 nM and 0.232 nM
OVCAR-4 ovarian
  TGI: 6.61 nM and 17 µM
M14 melanoma
  TGI: 4.19 nM, 1.29 nM, 16.2 nM
HCT-116 colon
  TGI: 3.01 nM and 0.151 nM
RPMI-8226 leukemia
  TGI: 4.61 nM and 0.264 nM
K-562 leukemia
  TGI: 175 nM, > 37.5 µM, > 100 µM
LOX IMVI melanoma
  TGI: 1.93 nM and 0.182 nM
HT29 colon
  TGI: 5.31, 3.82, 4.28, 34.1 nM
MCF7 breast
  TGI: 3.16 nM and 0.29 nM
TK-10 renal
  TGI: 7.46 nM, 8.67 nM, 90.6 nM
OVCAR-5 ovarian
  GI50: 0.228 nM and 3.75 nM
SK-MEL-5 melanoma
  TGI: 4.5 nM and 0.186 nM
OVCAR-8 ovarian
  TGI: 2.2 nM and 0.188 nM
SN12C renal
  TGI: 2.15 nM and 0.104 nM
786-0 renal
  TGI: 1.66 nM and 0.152 nM
SF-268 CNS
  TGI: 168 nM, 4.41 nM, 19.1 nM
PC-3 prostate
  TGI: 2.57 nM and 0.207 nM

## COc1cc(-c2oc3c(OC)c(OC)cc(O)c3c(=O)c2OC)ccc1O
ACHN renal
  TGI: > 100 µM [sample A, 1 test] and 5 µM [sample B, 1 test]

## CO[C@H]1[C@H](O)[C@H](O[C@H]2CC[C@@]3(C)[C@H](CC[C@@H]4[C@@H]3CC[C@]3(C)[C@@H](C5=CC(=O)OC5)CC[C@]43O)C2)O[C@@H](C)[C@@H]1O
IGROV1 ovarian
  TGI: 1.35 nM and 54.2 nM
SNB-78 CNS
  TGI: 9.01 nM and > 100 µM
HOP-62 NSCLC
  TGI: 1.1 nM and 12.3 nM
OVCAR-5 ovarian
  TGI: 3.73 nM and 49.6 nM

## C#CCN1CCN(C(=S)N/N=C(\C)c2ccccn2)CC1
RPMI-8226 leukemia
  TGI: 79.8 nM and 11.7 µM
UACC-62 melanoma
  TGI: 129 nM and 2.67 µM

## CC(=O)OCC1OC(OC2CC3C(C)(C)C(OC(C)=O)CC[C@]3(C)C3CCC45CC4(CC[C@H]5C(C)CC(O)C4OC4(C)C)[C@]23C)C(O)C(O)C1O (some centres not stated)
KM20L2 colon
  TGI: > 60 µM and 3.26 µM
UACC-62 melanoma
  TGI: > 60 µM and 4.01 µM

## CCC(=O)OC1CCn2c1nc1c2C(=O)C(C)=C(N2CC2)C1=O (configuration not stated)
RPMI-8226 leukemia
  GI50: 38.7 nM and 1.09 µM
  TGI: 267 nM and 15 µM
K-562 leukemia
  TGI: 477 nM and 10.8 µM
TK-10 renal
  TGI: 150 nM and 2.88 µM
A549 NSCLC
  TGI: 86.5 nM and 934 nM
SR leukemia
  GI50: 4.42 nM and 3.61 µM
  TGI: 24.9 nM and 32.8 µM
SF-539 CNS
  TGI: 29.7 nM and 314 nM
786-0 renal
  TGI: 40.7 nM and 601 nM

Source: PubChem BioAssay (NCI)
